The values that follow come from publication PMC4336329 (PLoS ONE, 2015).

The campaign covered roughly 310,000 compounds. About 2,200 (0.71%) showed an effect of 50% or more. Effects have a minus sign here. This is one part of the list.

For this test, the target named is human ether-à-go-go-related gene (hERG) potassium channel (human, UniProt Q12809). In words: primary screen, population patch clamp on CHO cells stably expressing hERG.
Chain of human ether-à-go-go-related gene (hERG) potassium channel (Q12809 whole entry, looked up): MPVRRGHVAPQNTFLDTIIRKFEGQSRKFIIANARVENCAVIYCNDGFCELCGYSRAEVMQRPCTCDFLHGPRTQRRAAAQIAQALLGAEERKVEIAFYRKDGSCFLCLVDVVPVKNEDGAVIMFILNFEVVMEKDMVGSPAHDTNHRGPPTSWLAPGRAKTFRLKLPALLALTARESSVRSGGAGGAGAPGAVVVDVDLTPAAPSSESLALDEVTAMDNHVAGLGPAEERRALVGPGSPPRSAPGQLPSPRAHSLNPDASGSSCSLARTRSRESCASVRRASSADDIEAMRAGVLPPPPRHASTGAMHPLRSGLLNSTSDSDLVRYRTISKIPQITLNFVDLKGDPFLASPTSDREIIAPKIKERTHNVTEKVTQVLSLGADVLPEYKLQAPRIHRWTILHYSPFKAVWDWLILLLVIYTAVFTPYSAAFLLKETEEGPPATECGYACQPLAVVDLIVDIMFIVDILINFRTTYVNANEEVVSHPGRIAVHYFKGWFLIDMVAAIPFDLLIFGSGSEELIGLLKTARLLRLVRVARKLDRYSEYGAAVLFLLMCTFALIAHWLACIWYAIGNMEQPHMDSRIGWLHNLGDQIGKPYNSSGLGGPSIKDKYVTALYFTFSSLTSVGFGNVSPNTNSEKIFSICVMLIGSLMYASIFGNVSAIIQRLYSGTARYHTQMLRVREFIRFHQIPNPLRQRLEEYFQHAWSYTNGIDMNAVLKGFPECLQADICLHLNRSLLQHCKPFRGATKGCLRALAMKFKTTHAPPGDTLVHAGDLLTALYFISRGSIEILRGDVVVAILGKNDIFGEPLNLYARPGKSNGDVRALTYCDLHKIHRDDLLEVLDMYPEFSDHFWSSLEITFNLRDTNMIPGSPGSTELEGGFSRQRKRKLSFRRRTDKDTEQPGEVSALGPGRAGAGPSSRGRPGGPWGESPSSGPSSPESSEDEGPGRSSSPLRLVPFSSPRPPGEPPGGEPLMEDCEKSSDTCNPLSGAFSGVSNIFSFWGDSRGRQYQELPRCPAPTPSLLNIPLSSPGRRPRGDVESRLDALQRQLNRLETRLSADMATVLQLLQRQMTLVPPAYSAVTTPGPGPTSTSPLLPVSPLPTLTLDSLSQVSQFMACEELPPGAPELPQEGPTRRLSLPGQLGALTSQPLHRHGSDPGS
Regarding `CC(C)(C)NS(=O)(=O)c1ccc(NC(=O)CS(=O)(=O)Cc2ccccc2)cc1`, the “hERG current change (%, negative = inhibition) at 1uM” value was found to be 15.9%.

Turning to `CCNc1nc(Oc2c(Cl)cccc2Cl)cc(C(F)(F)F)n1`, the “hERG current change (%, negative = inhibition) at 1uM” value amounted to 3.61%.

In the case of `O=C(O)CC(C(=O)NC1CCCCC1)C1CCCO1` (centres unmarked), the “hERG current change (%, negative = inhibition) at 1uM” value amounted to 4.27%.

In the case of `Cc1c(C)c2c(OCC(=O)Nc3ccc(CCO)cc3)cc3c(c2oc1=O)CCC(C)(C)O3`, the “hERG current change (%, negative = inhibition) at 1uM” value was 2.05%.

With `Cc1cnc(C(=O)N2CCCC(N3CCN(c4ccccc4C)CC3)C2)cn1` (centres unmarked), the “hERG current change (%, negative = inhibition) at 1uM” value is on record as -0.689%.

Regarding `COc1cccc(C(=O)OCCCOC(=O)c2cccc(OC)c2OC)c1OC`, the “hERG current change (%, negative = inhibition) at 1uM” value came to 12.6%.

Turning to `CCOC(=O)C1=C(CC)Nc2ccccc2N=C1NC(=O)c1cc(C)on1`, the “hERG current change (%, negative = inhibition) at 1uM” value is reported as 3.86%.

In the case of `CC(=O)c1ccc(N2CCN(C(=O)c3cc(-c4ccncc4)nc4ccc(Cl)cc34)CC2)cc1`, the “hERG current change (%, negative = inhibition) at 1uM” value was 10.8%.

Regarding `O=C(O)COc1ccccc1/C=N/NC(=O)c1cc(-c2ccc(Cl)cc2)nc2ccccc12`, the “hERG current change (%, negative = inhibition) at 1uM” value is given as 8.82%.

Regarding `Cc1ccccc1NC(=O)Cn1nnc(-c2ccc(N3CCOCC3)cc2)n1`, the “hERG current change (%, negative = inhibition) at 1uM” value turned out to be 9.38%.

Take `CCOCCn1c(CN2CCCCC2)nc2c1c(=O)n(C)c(=O)n2C`: the “hERG current change (%, negative = inhibition) at 1uM” value is listed as 16.6%.

For `COC(=O)C1C(c2ccccc2)NC(=O)NC1(O)C(F)(F)Cl` (centres unmarked), the “hERG current change (%, negative = inhibition) at 1uM” value is given as -1.56%.

As to `CC(CN1CCCC(C(N)=O)C1)c1ccccc1` (centres unmarked), the “hERG current change (%, negative = inhibition) at 1uM” value was 14.2%.

For the compound `COc1ccc(-n2c(N)c(C(=O)NCc3ccco3)c3nc4ccccc4nc32)cc1OC`, the “hERG current change (%, negative = inhibition) at 1uM” value is 6.2%.

For `COC(=O)c1c(-c2ccc(C)cc2)csc1NC(=S)NC(=O)c1cc(OC)cc(OC)c1`, the “hERG current change (%, negative = inhibition) at 1uM” value is 15.3%.

Take `C=C(Br)Cn1c(CCC)nc2ccccc21`: the “hERG current change (%, negative = inhibition) at 1uM” value amounted to 15.9%.

For `O=C(O)C1=C[C@H](C2CC2)C[C@H](OCc2ccc(CO)cc2)O1`, the “hERG current change (%, negative = inhibition) at 1uM” value stood at 14.7%.

As for `C=CCn1c(CCC)nc2ccccc21`, the “hERG current change (%, negative = inhibition) at 1uM” value came to 6.27%.

Turning to `COc1ccc(-n2nc(C(=O)NCC(=O)N3CCOCC3)c3ccccc3c2=O)c(OC)c1`, the “hERG current change (%, negative = inhibition) at 1uM” value is given as 10.2%.

On to `CC1=CC2=NC(=O)/C(=C\c3cc(C)n(-c4cccc(Cl)c4)c3C)C(=N)N2O1`, for which the “hERG current change (%, negative = inhibition) at 1uM” value is -0.238%.

In the case of `O=C(N/N=C/c1c[nH]c2ccccc12)C1CC(=O)N(c2ccccc2)C1` (centres unmarked), the “hERG current change (%, negative = inhibition) at 1uM” value worked out at 8.37%.

As for `O=C(CCN1C(=O)c2ccccc2C1=O)Nc1ccc(F)cc1`, the “hERG current change (%, negative = inhibition) at 1uM” value amounted to 4.3%.

Turning to `COc1cc(OC)c2c(c1C(CCN1CCOCC1)c1ccc(N(C)C)cc1)OC(=O)CC2c1ccc(N(C)C)cc1` (centres unmarked), the “hERG current change (%, negative = inhibition) at 1uM” value was determined as 11.2%.

For `CCOC(=O)N1CCN(C(=S)Nc2cc(S(=O)(=O)N3CCOCC3)ccc2Cl)CC1`, the “hERG current change (%, negative = inhibition) at 1uM” value is 10.3%.

Take `c1ccc(-n2c(-c3ccncc3)nnc2-c2ccco2)cc1`: the “hERG current change (%, negative = inhibition) at 1uM” value was -0.483%.

Consider `COc1ccc(N2CCN(CCNC(=O)c3nnc(Cc4c(F)cccc4Cl)o3)CC2)cc1`, for which the “hERG current change (%, negative = inhibition) at 1uM” value turned out to be 16.7%.

For `Cc1c(NC(=O)/C=C/c2cn(-c3ccccc3)nc2-c2ccccc2)c(=O)n(-c2ccccc2)n1C`, the “hERG current change (%, negative = inhibition) at 1uM” value turned out to be 4.86%.

Consider `COc1ccc(C(=O)NCC(=O)N2CCNC(=O)C2)cc1OC`, for which the “hERG current change (%, negative = inhibition) at 1uM” value is 12.5%.

For `CC1(C)CC(=O)/C(=C\c2cccc([N+](=O)[O-])c2)C(C)(C)N1`, the “hERG current change (%, negative = inhibition) at 1uM” value is 11.8%.

Consider `COC(=O)c1ccc(NC(=O)c2ccc(NC(=O)C3CCCO3)cc2)cc1` (centres unmarked), for which the “hERG current change (%, negative = inhibition) at 1uM” value was found to be 5.5%.

Consider `Cc1cccc(NC(=O)CN2C(=O)CNC2=O)c1`, for which the “hERG current change (%, negative = inhibition) at 1uM” value was determined as 11.4%.

Turning to `C/C(=N\NC(N)=S)c1ccc2c(c1)OCCO2`, the “hERG current change (%, negative = inhibition) at 1uM” value turned out to be 14%.

On to `Cc1ccc2c(c1)sc1nc(=O)n(-c3ccc(Cl)cc3)c(=O)n12`, for which the “hERG current change (%, negative = inhibition) at 1uM” value amounted to 3.37%.

As to `COc1ccccc1OCCNC(=O)C1CCCCC1`, the “hERG current change (%, negative = inhibition) at 1uM” value was found to be 13%.

`CCCCCCCCS(=O)c1sc2nc3c(cc2c1N)CCCC3` (centres unmarked): the “hERG current change (%, negative = inhibition) at 1uM” value was 16.1%.

For the compound `COc1cc(Cl)ccc1OCc1cc(C(=O)N(C)Cc2nnc(C)o2)no1`, the “hERG current change (%, negative = inhibition) at 1uM” value is given as 10.9%.

Take `CCOc1ccc2nc(SCC(=O)N(CC(C)C)c3c(N)n(Cc4ccccc4)c(=O)[nH]c3=O)[nH]c2c1`: the “hERG current change (%, negative = inhibition) at 1uM” value is on record as 9.81%.

With `COc1ccccc1C(=O)NCC(=O)NCCC(c1ccccc1)c1ccccc1`, the “hERG current change (%, negative = inhibition) at 1uM” value is given as -46.4%.

On to `CC(C)(C)NC(=O)CN(Cc1ccc(F)cc1)C(=O)Cn1nnc(-c2ccc(F)cc2)n1`, for which the “hERG current change (%, negative = inhibition) at 1uM” value was 6.31%.

For `COc1ccc(N(CC2CO2)S(=O)(=O)c2ccc(C)cc2)cc1` (centres unmarked), the “hERG current change (%, negative = inhibition) at 1uM” value came out at 13.7%.

As to `COc1cccc(C(=O)Nc2nc3ccccc3s2)c1`, the “hERG current change (%, negative = inhibition) at 1uM” value amounted to 4.68%.

As for `Cc1cccc(OCCCC(=O)N2CCCCCC2)c1C`, the “hERG current change (%, negative = inhibition) at 1uM” value amounted to 12.9%.

Take `Cc1nn(-c2ncc(C(F)(F)F)cc2Cl)c(=O)n1-c1ccccc1F`: the “hERG current change (%, negative = inhibition) at 1uM” value was determined as 1.93%.

As for `O=C(CCn1nnc2ccccc2c1=O)N[C@@H](Cc1c[nH]c2ccccc12)C(=O)O`, the “hERG current change (%, negative = inhibition) at 1uM” value was 11.6%.
